“And” between values parts separate entries of the source, which are not always exact repeats. Equal entries are not always repeated. The inconclusive results got no clear call from the source; some entries with a clear call stand among them for comparison. A potency beside an inconclusive call is a rough fit, not a confirmed value. The source made the active and inactive calls. Calls come from the whole dose curve; as a rule, active = well fitted activation curve with a large enough effect; inconclusive = small, poorly fitted or top-dose-only effect; inactive = no such curve, though single readings can be large or run the other way.
What follows are compounds tested against Cellular tumor antigen p53 (Homo sapiens) (UniProt P04637) (assay: Primary qHTS for small molecule compounds that upregulate eGFP-tagged delta133p53alpha (in N-terminal) cells. (AID 2060322;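 note: cells pre-induced with doxycycline then dosed without doxycycline; nearly all actives have a fitted effect of over 75% in size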;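 for activation: series mostly up to about 56 µM; 0% = DMSO vehicle and 100% = reference activator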)). Conditions: NCI-H358 eGFP-delta133p53alpha fluorescence, 24 h; activation: stronger effect = higher value.
Sequence of UniProt P04637 (P04637 whole entry, looked up): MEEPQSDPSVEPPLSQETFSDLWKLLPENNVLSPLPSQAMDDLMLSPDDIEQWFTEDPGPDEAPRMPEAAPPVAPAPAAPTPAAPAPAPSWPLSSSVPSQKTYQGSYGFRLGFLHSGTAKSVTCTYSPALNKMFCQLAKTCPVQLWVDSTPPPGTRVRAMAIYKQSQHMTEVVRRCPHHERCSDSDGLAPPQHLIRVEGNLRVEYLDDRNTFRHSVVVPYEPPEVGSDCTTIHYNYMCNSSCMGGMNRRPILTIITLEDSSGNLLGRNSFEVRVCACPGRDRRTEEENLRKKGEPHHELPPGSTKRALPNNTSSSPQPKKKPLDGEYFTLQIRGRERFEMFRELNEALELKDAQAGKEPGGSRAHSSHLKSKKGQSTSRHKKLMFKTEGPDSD
Summary of the method: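 NCI-H358 cells pre-induced 24 h with 10 ng/ml doxycycline for eGFP-delta133p53alpha, plated dox-free and exposed 24 h at 37C to titrated compounds. Fixed, Hoechst-stained; gated GFP peak intensity by laser scanning cytometry, normalized to DMSO (0%) and 57.5 uM 5-azacytidine (100%).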
For `C[C@@H]1O[C@@H](O[C@H]2[C@H](O[C@H]3CC[C@@]4(C)C(CC[C@]5(C)C4CC=C4[C@@H]6CC(C)(C)CC[C@]6(C(=O)O)CC[C@]45C)[C@]3(C)CO)OC[C@H](O)[C@@H]2O)[C@H](O)[C@H](O[C@@H]2OC[C@@H](O)[C@H](O)[C@H]2O)[C@H]1O` (stereo not given in full), the Potency was inconclusive: 4.53 µM [activator, single point].
For `Cc1cc(NC(=O)NCCN2CCC(O)(Cc3ccccc3)CC2)c2ccccc2n1`, the activation was inactive: 3.34%.
`C/C=C(/C(=C/C)c1ccc(OC(C)=O)cc1)c1ccc(OC(C)=O)cc1` was tested, and the Potency was inconclusive: 34.7 µM [activator, single point].
With `C[C@H]1C[C@H]2[C@@H]3CCC4=CC(=O)C=C[C@]4(C)[C@H]3C(=O)C[C@]2(C)[C@@]1(O)C(=O)CO` the Potency was inconclusive: 27.6 µM [activator, single point].
With `O=C(c1ccc(F)c(F)c1Nc1ccc(I)cc1F)N1CC(O)(C2CCCCN2)C1` (stereo not given) the Potency was inconclusive: 37.9 µM [activator, single point].
In the case of `COC(=O)C1=C(C)NC(COC(N)=O)=C(C(=O)OC(C)C)C1c1cccc(Cl)c1Cl` (stereo not given), the Potency is reported as inconclusive: 17.4 µM [activator, single point].
With `CNC(=O)c1ccc(Nc2cc(Nc3ccccc3S(=O)(=O)C(C)C)c3cc[nH]c3n2)nc1` the Potency was active: 19.3 µM.
In the case of `CC1(C)S[C@@H]2[C@H](NC(=O)Cc3ccccc3)C(=O)N2[C@H]1C(=O)O` (tested in a mixture with another compound), the Potency is reported as inconclusive: 27.6 µM [activator, single point].
With `Nc1ccc(S(=O)(=O)NC(=O)c2ccccc2)cc1` the activation was inactive: 5.08%.
For `COc1cc(/C=C/CO)ccc1O[C@@H]1O[C@H](CO)[C@@H](O)[C@H](O)[C@H]1O`, the activation was inactive: -6.25%.
For `Fc1ccc(C2CCNC[C@H]2COc2ccc3c(c2)OCO3)cc1` (stereo not given in full), the Potency was inconclusive: 37.9 µM [activator, single point].
For `C[C@@H](O[C@H]1OCCN(Cc2n[nH]nc2CN(C)C)[C@H]1c1ccc(F)cc1)c1cc(C(F)(F)F)cc(C(F)(F)F)c1`, the Potency was inconclusive: 26.9 µM [activator, single point].
With `Nc1nc(F)nc2c1ncn2[C@@H]1O[C@H](CO)[C@@H](O)[C@@H]1O` the Potency was inconclusive: 1.22 µM [activator, full curve, poor fit].
For `CC(NCc1ccc2c(c1)nc(NC(=O)c1ccc(-c3cn[nH]c3)s1)n2CC(C)(C)O)C(C)(C)C` (stereo not given), the Potency was inconclusive: 2.43 µM [activator, partial curve, poor fit].
For `CC(C)=C[C@@H]1[C@H](CO[C@@H]2O[C@H](CO)[C@@H](O)[C@H](O)[C@H]2O)C1(C)C`, the activation was inactive: -9.82%.
With `CC1(C)C(=O)C(C)(C)c2cc(C(=O)Nc3ccc(C(=O)O)cc3)ccc21` the activation was inactive: -2.39%.
In the case of `O=C1Nc2ccc(I)cc2C1=Cc1cc(Br)c(O)c(Br)c1`, the Potency is reported as active: 24.3 µM.
For `O=C(NC(NC(=S)Nc1ccc(F)c([N+](=O)[O-])c1)C(Cl)(Cl)Cl)C(c1ccccc1)c1ccccc1` (stereo not given), the Potency was inconclusive: 1.58 µM [activator, single point].
With `C[C@@H]1O[C@@H](O[C@H]2[C@H](OC(=O)[C@]34CCC(C)(C)C[C@H]3C3=CCC5[C@@]6(C)C[C@H](O)[C@H](O[C@@H]7O[C@H](CO)[C@@H](O[C@@H]8O[C@H](CO)[C@@H](O)[C@H](O)[C@H]8O)[C@H](O)[C@H]7O)[C@@](C)(CO)C6[C@H](O)C[C@@]5(C)[C@]3(C)C[C@H]4O)OC[C@H](O)[C@@H]2O)[C@H](O)[C@H](O)[C@H]1O[C@@H]1OC[C@@H](O)[C@H](O[C@@H]2OC[C@](O)(CO)[C@H]2O)[C@H]1O` (stereo not given in full) the Potency was inconclusive: 0.804 µM [activator, partial curve, poor fit].
In the case of `COc1cc(/C=C/CO)cc(OC)c1O[C@@H]1O[C@H](CO[C@@H]2O[C@H](CO)[C@@H](O)[C@H](O)[C@H]2O)[C@@H](O)[C@H](O)[C@H]1O`, the Potency is reported as inconclusive: 1.31 µM [activator, full curve].
`OCCn1cc(-c2ccc3c(c2)CCC3=NO)c(-c2ccncc2)n1` was tested, and the Potency was inconclusive: 8.63 µM [activator, partial curve, poor fit].
With `Cc1ccccc1CN1C2=NCCN2C(=O)C2=C1CCN(Cc1ccccc1)C2` the activation was inactive: 29%.
In the case of `C=C1C(=O)O[C@@H]2/C=C(\C)CC/C=C(/C=O)[C@H](OC)[C@@H](OC(=O)C(C)C)[C@@H]12`, the Potency is reported as inconclusive: 18.6 µM [activator, single point].
In the case of `Nc1ncnc2c([C@@H]3N[C@H](CO)[C@@H](O)[C@H]3O)c[nH]c12`, the activation is reported as inactive: -8.93%.
For `CCCOC(C(=O)OC1CCN(C)CC1)(c1ccccc1)c1ccccc1`, the Potency was inconclusive: 38.9 µM [activator, single point].
For `C#C[C@]1(O)CC[C@H]2[C@@H]3CCC4=CC(=O)CC[C@@H]4[C@H]3CC[C@@]21C`, the activation was inactive: 7.34%.
In the case of `CCS(=O)(=O)Nc1ccc2[nH]c(O)c(C(=Nc3ccc(CN4CCCCC4)cc3)c3ccccc3)c2c1`, the Potency is reported as inconclusive: 7.69 µM [activator, full curve, poor fit].
In the case of `Cc1cc(C)cc(-c2cnc3cc(Cl)c(-c4cccc(O)c4)cc3c2OCCCN)c1`, the Potency is reported as inconclusive: 33.8 µM [activator, single point].
`CCCc1[nH]nc2c1C(c1cc(Cl)cc(Cl)c1O)C(C#N)=C(N)O2` (stereo not given) was tested, and the Potency was inconclusive: 21.3 µM [activator, single point].
For `COc1ccc(C(=O)c2ccccc2)c(O)c1`, the Potency was inconclusive: 38.9 µM [activator, single point].
For `Cc1cc(C)c(Nc2ccnc(Nc3ccc(C#N)cc3)n2)c(C)c1`, the Potency was inconclusive: 4.78 µM [activator, full curve].
`CN(C)CC=CC(=O)Nc1cc2c(Nc3ccc(F)c(Cl)c3)ncnc2cc1O[C@H]1CCOC1` was tested, and the Potency was inconclusive: 17.2 µM [activator, partial curve, poor fit].
With `C=C1CC2OC(=O)C(=C)C2C(OC(=O)/C(C)=C\C)CC2(C)OC1=CC2=O` (stereo not given) the Potency was inconclusive: 5.88 µM [activator, single point].
`C=C1C(=O)O[C@@H]2C[C@@H](C)[C@]34C[C@]5(C(=O)O[C@H]6CC(C)=C([C@H](C)CCCO)[C@H](OC(=O)C(C)CC)[C@H]65)[C@@H](C(C)=C3C[C@@H]12)[C@H]4OC(C)=O` (stereo not given in full) was tested, and the Potency was active: 6.3 µM.
With `CCOC(=O)N1CCN([N+]([O-])=NOc2cc(ON=[N+]([O-])N3CCN(C(=O)OCC)CC3)c([N+](=O)[O-])cc2[N+](=O)[O-])CC1` the activation was inactive: 5.87%.
`C=CC(=O)Nc1cccc(Nc2nc(NC3CCC(N(C)C)CC3)nc3c2ncn3C(C)C)c1` (stereo not given) was tested, and the Potency was active: 4.85 µM.
In the case of `C[C@]1(CO)CN(c2cc(C(=O)Nc3ccc4c(c3)-c3c(c(C(N)=O)nn3-c3ccc(F)cc3)CC4)c(Cl)cn2)C[C@@]1(C)CO`, the Potency is reported as inconclusive: 0.273 µM [activator, full curve, poor fit].
In the case of `CC[C@H]1OC(=O)[C@](C)(F)C(=O)[C@H](C)[C@@H](O[C@@H]2O[C@H](C)C[C@H](N(C)C)[C@H]2O)[C@](C)(OC)C[C@@H](C)C(=O)[C@@H](C)[C@H]2N(CCCCn3cc(-c4cccc(N)c4)nn3)C(=O)O[C@]12C`, the Potency is reported as inconclusive: 0.19 µM [activator, single point].
With `N[C@@H](C(=O)N[C@@H]1C(=O)N2C(C(=O)O)=C(Cl)CS[C@H]12)c1ccccc1` the activation was inactive: -19.2% and inactive: 26.9%.
For `O=C1c2c(O)cc(O)cc2O[C@H](c2cc(O)c(O)c(O)c2)[C@H]1O`, the activation was inactive: -0.847%.

Source: PubChem BioAssay (NCATS)
Potency is the fitted concentration of half-maximal effect; tags give direction and shape of the fitted curve.
